Test results from PMC4336329 (PLoS ONE, 2015).
About 2,200 (0.71%) of roughly 310,000 compounds showed an effect of 50% or more. The effect is printed as a negative number. This is one part of the list.

biological target: human ether-à-go-go-related gene (hERG) potassium channel (human, UniProt Q12809); assay: primary screen, population patch clamp on CHO cells stably expressing hERG
Sequence (Q12809 whole entry, looked up): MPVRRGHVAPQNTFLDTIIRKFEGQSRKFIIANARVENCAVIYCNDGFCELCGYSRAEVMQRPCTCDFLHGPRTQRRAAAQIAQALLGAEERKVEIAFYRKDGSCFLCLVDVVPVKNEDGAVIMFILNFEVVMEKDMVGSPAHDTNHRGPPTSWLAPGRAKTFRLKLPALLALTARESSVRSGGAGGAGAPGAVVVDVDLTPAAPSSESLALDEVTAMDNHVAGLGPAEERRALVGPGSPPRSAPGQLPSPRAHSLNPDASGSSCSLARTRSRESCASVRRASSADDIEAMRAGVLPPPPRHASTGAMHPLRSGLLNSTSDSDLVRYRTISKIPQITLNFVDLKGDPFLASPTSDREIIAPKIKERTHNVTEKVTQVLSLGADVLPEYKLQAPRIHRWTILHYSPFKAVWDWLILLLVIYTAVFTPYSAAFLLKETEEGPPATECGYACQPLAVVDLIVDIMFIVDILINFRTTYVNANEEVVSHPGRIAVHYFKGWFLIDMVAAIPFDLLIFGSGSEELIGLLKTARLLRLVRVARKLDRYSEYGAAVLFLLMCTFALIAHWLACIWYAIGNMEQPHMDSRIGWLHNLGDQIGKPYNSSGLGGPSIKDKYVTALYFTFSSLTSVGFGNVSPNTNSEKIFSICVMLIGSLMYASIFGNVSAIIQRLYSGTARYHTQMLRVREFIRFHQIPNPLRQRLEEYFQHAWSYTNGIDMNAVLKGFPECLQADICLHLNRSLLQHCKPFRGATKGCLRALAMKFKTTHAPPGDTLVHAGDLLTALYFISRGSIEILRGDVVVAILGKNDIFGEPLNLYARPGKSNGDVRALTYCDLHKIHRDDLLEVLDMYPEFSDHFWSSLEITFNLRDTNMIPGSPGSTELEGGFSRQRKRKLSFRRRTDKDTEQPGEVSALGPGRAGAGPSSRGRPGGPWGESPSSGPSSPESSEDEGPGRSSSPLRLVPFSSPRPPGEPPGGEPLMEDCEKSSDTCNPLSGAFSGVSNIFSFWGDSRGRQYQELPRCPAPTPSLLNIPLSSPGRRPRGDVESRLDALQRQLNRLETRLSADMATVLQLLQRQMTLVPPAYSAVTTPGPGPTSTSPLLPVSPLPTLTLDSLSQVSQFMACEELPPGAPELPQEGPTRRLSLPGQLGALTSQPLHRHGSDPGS

Structure (SMILES)	hERG current change (%, negative = inhibition) at 1uM
COC(=O)CC1(c2cccc3ccccc23)C(=O)c2ccccc2C1=O	13.9%
O=C(Nc1ccc2c(c1)OCCO2)C1CCCN1C(=O)Nc1ccccc1 (stereo not drawn)	15.5%
Cc1ccccc1-c1nc(CS(=O)(=O)CC(=O)NCCCN2CCCC2)c(C)o1	3.82%
COc1ccc2c(C)cc(SCC(=O)Nc3c(C)n(C)n(-c4ccccc4)c3=O)nc2c1	-13.4%
COc1ccc(-n2nc(C(=O)O)c3ccccc3c2=O)c(OC)c1	1.83%
CC1(C)CC(=O)C(C=Nc2cccnc2)=C(O)C1	9.97%
Cc1ccc(S(=O)(=O)N2CCC(C(=O)Nc3ccccc3N3CCCCC3)CC2)cc1	13.6%
O=C(CNC(=O)c1ccccc1F)Nc1ccc2c(c1)CCC2	8.7%
CCOC(=O)CSc1nc(-c2ccc(OC)cc2)ns1	7.52%
CCCCCCCCc1nc(SCC(C)=O)n[nH]1	8.81%
COC1=C/C(=C/c2c(N)n3nc(CC(=O)N4CCOCC4)sc3nc2=O)C=CC1=O	-2.6%
O=C(c1cccnc1)N1CCCc2ccccc21	10.5%
Cc1ccn(S(=O)(=O)c2ccc(C(C)(C)C)cc2)n1	4.21%
CC(C)[C@H]1COCCS(=O)(=O)N1Cc1ccccc1	14.2%
CCCCn1c(N)c(N(CCOC)C(=O)c2ccc(N(C)S(=O)(=O)c3ccc(C)cc3)cc2)c(=O)[nH]c1=O	6.19%
O=C(NCc1ccco1)c1cnn2cccnc12	7.77%
CSCCC(NC(=O)c1ccc(C(C)(C)C)cc1)C(=O)OCC(=O)N1CCCC1=O (stereo not drawn)	18.3%
O=C(OCc1ccccc1)C1=NNC2C(=O)N(c3ccc(Br)cc3)C(=O)C12 (stereo not drawn)	7.43%
CO/N=C\C(=N\Nc1ccc(OC)cc1)C(=O)c1ccccc1	17.7%
CC(C)C[C@H](N)c1nnc(SCc2ccc(Cl)cc2)o1.Cl	13%
O=C(NCCSc1ccccc1)c1ccc(CN2CCOCC2)cc1	-4.11%
CCc1cc(C(=O)NNC(=S)NCC2CCCO2)cs1 (stereo not drawn)	-0.997%
CCn1c(C(C)NC(=O)c2ccc(Cl)cc2)n[nH]c1=S (stereo not drawn)	12.8%

Structure (SMILES)	hERG current change (%, negative = inhibition) at 1uM
Cc1ccc(S(=O)(=O)NCCSc2nnnn2C)cc1	0.0241%
C=C(C)C1CC=C(C)/C(=N/NC(=O)COc2cccc(C)c2)C1 (stereo not drawn)	-2.43%
COc1ccc(Nc2nc3ccccc3s2)cc1	13.2%
COc1ccc(Cc2nc3ccc(C(=O)N4CCC[C@H]4CO)cc3o2)cc1	10.9%
Cc1c(C)n(Cc2ccccc2)c2ncnc(NCCCO)c12	10.3%
CCCCC/C=C/C1=CC(=O)C[C@H](c2ccc(OC)cc2)C1	8.54%
CCCCn1c(N)c(N(CC(C)C)C(=O)c2cccc(OCc3ccccc3)c2)c(=O)[nH]c1=O	16.4%
CC(=O)c1c(C)n([O-])c2ccccc2[n+]1=O	11.2%
N#Cc1cc([N+](=O)[O-])ccc1NC(=O)COC(=O)C1CC2CCCC(C1)C2=O (stereo not drawn)	-0.123%
CCc1nc(SCC(=O)NCCc2ccccc2)c2c(=O)n(C)c(=O)n(C)c2n1	-7.58%
CCN(C(=O)CSc1ncccc1C(=O)Oc1cccc([N+](=O)[O-])c1)c1cccc(C)c1	4.46%
C=CCOc1c(Br)cc(/C=C(\C#N)C(N)=O)cc1OC	1.67%
O=C(NCC(=O)N(c1ccc(F)cc1)C(C(=O)NC1CCCCC1)c1cccnc1)c1ccco1 (stereo not drawn)	13%
COc1cccc(/C=C2\Oc3cc(OC(=O)N4CCOCC4)ccc3C2=O)c1	14.1%
CC(C)Cn1c(=O)c(C(=O)NCc2ccc3c(c2)OCO3)c(O)c2ccccc21	14.7%
CC(=O)Nc1ccc(OCc2cnc(Cl)s2)cc1	9.07%
COc1ccccc1CNC(=O)Cn1cc([N+](=O)[O-])ccc1=O	16.9%
O=C(NC1CCCc2ccccc21)c1ccc(Br)cc1 (stereo not drawn)	8.5%
O=C(NCc1cccnc1)C(=O)C1C(=O)Nc2ccccc21 (stereo not drawn)	8.93%
CCCOc1ccc(CNC(=O)c2ccc3c(c2)N(CC)CCS3)cc1	-7.53%
O=C(OCC(=O)N1c2ccccc2Sc2ccccc21)C1CC(=O)N(Cc2ccco2)C1 (stereo not drawn)	11.1%
O=c1[nH]c2ccc(F)cc2[nH]c1=O	16.1%
